From PubChem BioAssay AID1030 (National Center for Advancing Translational Sciences (NCATS), 2008)
Screen size: about 220,000 compounds; about 16,000 (7.3%) were called active. The shares of active, inactive and inconclusive entries below differ from those in the screen. Calls follow the shape of the dose curve; as a rule, active = well fitted inhibition curve with a large enough effect (not every such curve was filed as active); inconclusive = small, poorly fitted or top-dose-only effect, or another doubt; inactive = no such curve, though single readings can be large or run the other way. No potency is given beside an inconclusive call; the fits are too rough.

Target: Aldehyde dehydrogenase 1A1 (Homo sapiens) (UniProt P00352)
Sequence of UniProt P00352 (P00352 whole entry, looked up): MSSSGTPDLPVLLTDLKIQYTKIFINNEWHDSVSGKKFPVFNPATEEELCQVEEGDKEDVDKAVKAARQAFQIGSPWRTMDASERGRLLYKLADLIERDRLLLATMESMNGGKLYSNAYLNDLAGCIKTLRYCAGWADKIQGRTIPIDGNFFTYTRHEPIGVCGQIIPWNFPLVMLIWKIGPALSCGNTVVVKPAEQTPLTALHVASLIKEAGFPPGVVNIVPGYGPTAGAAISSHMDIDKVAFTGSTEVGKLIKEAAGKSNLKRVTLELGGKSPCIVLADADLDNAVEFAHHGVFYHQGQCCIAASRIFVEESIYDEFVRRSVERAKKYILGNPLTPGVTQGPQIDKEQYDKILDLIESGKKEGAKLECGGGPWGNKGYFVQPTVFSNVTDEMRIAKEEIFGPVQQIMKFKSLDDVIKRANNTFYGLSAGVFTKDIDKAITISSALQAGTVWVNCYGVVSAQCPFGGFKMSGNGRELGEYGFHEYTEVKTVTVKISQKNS
Test: qHTS Assay for Inhibitors of Aldehyde Dehydrogenase 1 (ALDH1A1);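 as to activity, negative = inhibition: plate controls were no enzyme wells and a reference inhibitor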
Settings: Purified ALDH1A1, NADH fluorescence, propionaldehyde substrate; series mostly up to 75.3 µM; activity, negative = inhibition: at the top concentration
Potency is read from the fitted curve at half-maximal effect; tags tell the direction and shape of the fitted curve.

Row | SMILES | activity, negative = inhibition | Potency
1 | O=c1[nH]c(CN2CCN(S(=O)(=O)c3ccccc3C(F)(F)F)CC2)nc2sc3c(c12)CCCC3 | inactive: -7.5% | –
2 | O=C(CN1C(=O)S/C(=C/c2ccncc2)C1=O)N1CCOCC1 | – | active: 25.1 µM
3 | Cc1nnc(N/N=C\c2ccc(-c3ccccc3[N+](=O)[O-])o2)n1N | – | active: 20 µM
4 | CCOC(=O)c1cccc(NS(=O)(=O)c2cnc[nH]2)c1 | inactive: 2.84% | –
5 | Cc1cc(C)cc(NC(=O)Nc2ccc3c(c2)N(C)C(=O)CS3)c1 | inactive: 10.1% | –
6 | CCN(CC)C(=O)CSC1=Nc2ccccc2C2=NC(c3ccccc3)C(=O)N12 (configuration not stated) | – | inconclusive [inhibitor, partial curve]
7 | CCCC(=O)N=C1SC2CS(=O)(=O)CC2N1c1ccc(-c2nc3ccc(C)cc3s2)cc1 (configuration not stated) | – | inconclusive [inhibitor, partial curve]
8 | O=C(N/N=C/c1sc(N2CCOCC2)nc1-c1ccccc1)c1ccccc1Cl | – | inconclusive [inhibitor, single point]
9 | COCC(C)NC(=O)c1ccc(-n2nc(C(F)(F)F)cc2-c2cccs2)cc1 (configuration not stated) | – | inconclusive [inhibitor, single point]
10 | Cc1nc(NCc2ccco2)nc2c1C(=O)CC(C)C2 (configuration not stated) | – | inconclusive [inhibitor, single point]
11 | COc1ccc(NC(=S)NCc2cccn2C)cc1 | – | inconclusive [inhibitor, single point]
12 | Cc1csc(Nc2ccc(Cl)cc2)n1 | – | inconclusive [inhibitor, single point]
13 | O=c1c2c(nc3nc(NCc4ccc(Cl)cc4)[nH]n13)CCC2 | inactive: 10.6% | –
14 | Cc1cc(NC(=O)c2ccccc2)nc2c1c(=O)oc1ccccc12 | – | inconclusive [inhibitor, partial curve]
15 | CC(C)CN1CN(S(=O)(=O)c2cccs2)c2nc3ccccc3nc21 | – | inconclusive [inhibitor, partial curve]
16 | N/C(=N\OC(=O)COc1ccc2ccccc2c1Br)c1ccncc1 | inactive: -1.51% | –
17 | NC(=O)C1CCN(C(c2ccccc2F)c2nnnn2Cc2ccco2)CC1 (configuration not stated) | – | inconclusive [inhibitor, single point]
18 | O=C(N/N=C/c1ccc(O)cc1O)/C(=C/c1ccccc1)CCO | inactive: -2.9% | –
19 | CCCc1cc(C(=O)Nc2sc(C(C)=O)c(C)c2C(=O)OCC)no1 | – | active: 25.1 µM
20 | O=C1CC(Cc2ccccc2)C(=O)N1CCCn1ccnc1 (configuration not stated) | – | active: 15.8 µM
21 | CCn1c(SCC(=O)N2CCc3ccccc32)nnc1-c1ccncc1 | inactive: -2.27% | –
22 | COc1cc(OC)c2c(OC)c(-c3ccc4c(c3)OCO4)c(=O)oc2c1 | – | inconclusive [inhibitor, partial curve]
